# Assay results: PubChem BioAssay AID2147 (National Center for Advancing Translational Sciences (NCATS), 2009)
# Hit rate of the full screen: of about 230,000 compounds, about 3,600 (1.6%) were called active. This list was built around the results that the source calls inconclusive (neither active nor inactive); the mix of calls is not that of the screen. Calls follow the shape of the dose curve; as a rule, active = well fitted inhibition curve with a large enough effect (not every such curve was filed as active); inconclusive = small, poorly fitted or top-dose-only effect, or another doubt; inactive = no such curve, though single readings can be large or run the other way. Where the call is inconclusive, the potency comes from a doubtful curve fit.
# Target: Lysine-specific demethylase 4E (Homo sapiens) (UniProt B2RXH2)
# Test: qHTS Assay for Inhibitors of Human Jumonji Domain Containing 2E (JMJD2E)
# Details: JMJD2E catalytic domain, FDH-coupled NADH fluorescence (FDH is formaldehyde dehydrogenase); series mostly up to 57.1 µM; activity change, negative = inhibition: at the top concentration
# Also: nearly all actives have a fitted effect of over 50% in size.
# 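For activity change, negative = inhibition in this document: 0% = wells with enzyme and -100% = buffer wells without enzyme.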
# Potency is read from the fitted curve at half-maximal effect; tags tell the direction and shape of the fitted curve.
# Sequence of UniProt B2RXH2 (B2RXH2 whole entry, looked up, the tested form may be a part): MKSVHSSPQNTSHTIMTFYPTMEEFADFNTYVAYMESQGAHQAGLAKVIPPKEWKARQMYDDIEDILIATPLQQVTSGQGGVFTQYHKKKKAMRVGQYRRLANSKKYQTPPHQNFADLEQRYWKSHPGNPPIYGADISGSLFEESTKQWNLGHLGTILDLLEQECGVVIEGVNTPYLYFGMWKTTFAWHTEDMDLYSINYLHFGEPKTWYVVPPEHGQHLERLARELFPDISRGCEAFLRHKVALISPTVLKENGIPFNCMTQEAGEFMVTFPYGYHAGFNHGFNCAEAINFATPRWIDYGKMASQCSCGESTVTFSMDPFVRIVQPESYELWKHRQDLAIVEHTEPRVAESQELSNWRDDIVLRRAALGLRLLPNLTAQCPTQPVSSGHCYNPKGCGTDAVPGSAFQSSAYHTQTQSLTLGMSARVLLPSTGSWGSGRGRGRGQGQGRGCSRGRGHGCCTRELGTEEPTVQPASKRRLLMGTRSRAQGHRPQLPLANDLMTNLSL
Compound,Potency,"activity change, negative = inhibition"
O=C(c1cccn2c(=O)c3ccccc3nc12)N1CCN(Cc2ccc3c(c2)OCO3)CC1,"inconclusive: 28.2 µM [inhibitor, partial curve]",
O=C(Cc1nc2ccccc2[nH]1)NCc1ccco1,"inconclusive: 39.8 µM [inhibitor, single point]",
Cc1cc(C)n2nc3ccccc3c2n1,"inconclusive: 28.2 µM [inhibitor, single point]",
O=c1[nH]c2ccc(NC(=S)Nc3ccccc3)cc2[nH]1,,inactive: -14.5%
CC(=O)c1cc(-c2ccccc2)[nH]c1N1CCOCC1,,inactive: 1.12%
CC1(C)C(=O)Nc2ccccc2N1C(=O)CSc1nnc2ccccn12,"inconclusive: 31.6 µM [inhibitor, partial curve]",
CCc1nn2c(=O)cc(COc3ccc(/C=C4\C(=N)N5N=C(C)SC5=NC4=O)cc3)nc2s1,"inconclusive: 25.1 µM [inhibitor, partial curve]",
CCSc1nnc(NC(=O)CSc2nnc(CNC(=O)c3ccccc3F)o2)s1,,inactive: 4.14%
Cc1nc(NC(=O)c2ccco2)sc1-c1csc(Nc2ccc(Cl)cc2)n1,,inactive: -14.5%
O=C(Nc1cccc(NC(=O)c2ccc(Br)o2)n1)c1ccc(Br)o1,"inconclusive: 22.4 µM [inhibitor, partial curve]",
CCc1nc2ccccc2c(C(=O)OCc2nnc(-c3ccccc3)o2)c1C,,inactive: 1.78%
Cc1ccc2c(c1)N(CC(=O)O)C(=O)CO2,,inactive: 0.822%
O=C(C1CCCN(Cc2ccccc2)C1)N1CCc2ccccc2C1 (stereo not drawn),"inconclusive: 39.8 µM [inhibitor, single point]",
CN1CCN(C(=O)c2ccc(-n3cccn3)nc2)CC1,"inconclusive: 39.8 µM [inhibitor, single point]",
Cc1c(Cl)cccc1N=Cc1ccc([N+](=O)[O-])s1,active: 22.4 µM,
CC(=O)c1c(OCC(=O)O)ccc2c(C)cc(=O)oc12,"inconclusive: 31.6 µM [inhibitor, single point]",
CC1CN(c2ccc(Cl)cc2[N+](=O)[O-])CCN1S(C)(=O)=O (stereo not drawn),"inconclusive: 0.0032 µM [inhibitor, full curve, poor fit]",
c1ccc(-c2nc(N3CCCC3)nc3ccccc23)cc1,"inconclusive: 35.5 µM [inhibitor, single point]",
CCOC(=O)/C(C#N)=C/c1ccc(OCC(=O)Nc2ccccc2)c(OC)c1,"inconclusive: 39.8 µM [inhibitor, single point]",
O=C(C1CCN(S(=O)(=O)c2cccc3cccnc23)CC1)N1CCN(c2ccccn2)CC1,"inconclusive: 35.5 µM [inhibitor, single point]",
COc1ccc(OC)c(NC(=O)COC(=O)CSc2ccc(Cl)cc2)c1,,inactive: -1.25%
Cc1nn(CCC(=O)NNC(=S)Nc2cccc(Cl)c2)c(C)c1[N+](=O)[O-],"inconclusive: 35.5 µM [inhibitor, single point]",
COc1ccc(S(=O)(=O)n2ccc(C(C)Oc3ccc(-c4ccccc4)c(F)c3)n2)cc1 (stereo not drawn),,inactive: 1.13%
CCOC(=O)c1sc(NC(=O)CSc2nnc(Cc3ccccc3)o2)c(C#N)c1C,,inactive: -10%
O=[N+]([O-])c1ccc(C2NS(=O)(=O)N=C3CCCCCN32)cc1 (stereo not drawn),"inconclusive: 22.4 µM [inhibitor, single point]",

Compound,Potency,"activity change, negative = inhibition"
COc1cc(OC)c2ccc(=O)oc2c1,"inconclusive: 3.16 µM [inhibitor, full curve]",
CCN1C(=O)c2cccc3c(S(=O)(=O)NCCCN4CCOCC4)ccc1c23,"inconclusive: 25.1 µM [inhibitor, partial curve]",
Cc1cc(O)c(/C=N/Nc2ccccc2Cl)c(=O)o1,"inconclusive: 35.5 µM [inhibitor, single point]",
CC(C)N(C(=O)CO/N=C/c1cccc([N+](=O)[O-])c1)C(C)C,,inactive: 2.47%
N#Cc1cc(-c2ccccc2)cnc1Sc1ccccc1,"inconclusive: 39.8 µM [inhibitor, single point]",
Cc1oc2ccccc2c1CC(=O)NCCCN(C)C,,inactive: -3.44%
CC(=O)Oc1ccc(C2C3=C(CC(C)(C)CC3=O)Nc3cc4c(cc32)OCCO4)cc1 (stereo not drawn),"inconclusive: 31.6 µM [inhibitor, partial curve]",
CCOCCCNC(=O)C(c1ccc(Cl)cc1)N1CCC2(CC1)OCCO2 (stereo not drawn),"inconclusive: 28.2 µM [inhibitor, single point]",
Cc1nc2c(ccc3nc(NC(=O)c4ccc5c(c4)OCCO5)sc32)s1,"inconclusive: 25.1 µM [inhibitor, partial curve]",
COc1ccccc1CCc1nnc(CCC(=O)NC(C)Cc2cccs2)o1 (stereo not drawn),,inactive: 9.22%
CCOC(=O)CC(=O)CSc1n[nH]c(=O)[nH]c1=O,,inactive: -5.99%
O=C(NCc1ccc2c(c1)OCO2)c1ccc(-c2ccc(Cl)cc2)o1,"inconclusive: 35.5 µM [inhibitor, single point]",
O=C(O)c1[nH]c2ccc([N+](=O)[O-])cc2c1-c1ccccc1,,inactive: 5.26%
CC(=O)Nc1ccc2cc3ccc(NC(C)=O)cc3nc2c1,"inconclusive: 28.2 µM [inhibitor, partial curve]",
Cc1nc(-c2ccccc2)sc1C1(C)CC(c2ccc(C#N)cc2)=NO1 (stereo not drawn),,inactive: 2.47%
Cc1nn(-c2ccccc2)nc1-c1nnc(-c2ccc(C(F)(F)F)cc2)o1,,inactive: 4.35%
Cc1nnc(SCC(=O)c2cc(C)n(-c3c(C)n(C)n(-c4ccccc4)c3=O)c2C)s1,,inactive: -5.05%
O=C(CN1CCCc2ccccc21)N/N=C/c1ccccc1,,inactive: -24.8%
CN1CCc2c(sc(N)c2C(N)=O)C1,"inconclusive: 31.6 µM [inhibitor, partial curve]",
O=C(Nc1ccc(-n2ccnc2P(=O)(O)c2ccccc2)cc1)c1ccccc1Br,"inconclusive: 25.1 µM [inhibitor, partial curve]",
CN(C)S(=O)(=O)c1ccc(Cl)c(NC(=O)CSc2nc3c(cc2C#N)C(=O)CC(C)(C)C3)c1,,inactive: -1.76%
CC(=O)N(C1=C(O)c2ccccc2C(=O)C1=O)C1CCCCC1,"inconclusive: 39.8 µM [inhibitor, single point]",
NC(=O)CC(NC(=O)Cc1ccc(Br)cc1)c1ccc(N2CCN(c3ccccc3)CC2)c([N+](=O)[O-])c1 (stereo not drawn),"inconclusive: 39.8 µM [inhibitor, single point]",
O=C(OCCN1C(=O)c2ccccc2C1=O)C1CCN(S(=O)(=O)c2cccs2)CC1,,inactive: 1.54%
C=CCNS(=O)(=O)c1cccc2cc(C(=O)O)c(O)cc12,"inconclusive: 28.2 µM [inhibitor, single point]",

Compound,Potency,"activity change, negative = inhibition"
Cc1cc(O)c2c(c1O)C(=O)c1c(O)cc(C)c(O)c1C2=O,"inconclusive: 25.1 µM [inhibitor, single point]",
CCN(CC)S(=O)(=O)c1ccc(C(=O)Nc2nnc(-c3ccco3)o2)cc1,"inconclusive: 39.8 µM [inhibitor, single point]",
COCc1cc(=O)n2[nH]c(-c3ccc(C)cc3)cc2n1,"inconclusive: 20 µM [inhibitor, partial curve]",
Cc1ccc(S(=O)(=O)N2CCCCC2)cc1C(=O)Nc1ccc(S(=O)(=O)Nc2ncccn2)cc1,,inactive: 3.38%
Cc1cccc(NC(=S)NCc2ccc3c(c2)cc(C)n3C)c1C,,inactive: -4.15%
CCc1nnc(NC(=O)CSc2nc(-c3ccccc3)cc(-c3ccc(OC)cc3)c2C#N)s1,,inactive: 11.7%
CCOC(=O)C1=C(C)NC(=S)N(C(C)=O)C1c1ccccc1 (stereo not drawn),,inactive: -2.86%
Cc1cc(=O)oc2cc(OCc3ccc(S(=O)(=O)N4CCOCC4)cc3)ccc12,"inconclusive: 20 µM [inhibitor, partial curve]",
COc1ccccc1-c1cc(C(F)(F)F)nc(NCc2cccs2)n1,"inconclusive: 31.6 µM [inhibitor, single point]",
O=C1C(=O)N(CCO)C(c2cccc(F)c2)/C1=C(\O)c1ccc(Cl)cc1 (stereo not drawn),,inactive: -4.41%
O=C(CCN1C(=O)c2ccccc2C1=O)Nc1ccccn1,"inconclusive: 39.8 µM [inhibitor, single point]",
CCOC(=O)c1sc(NC(=O)CSc2ncn[nH]2)c(C#N)c1C,,inactive: 1.48%
CCOc1ccc(-c2nnc3ccc(SC(C)C)nn23)cc1,"inconclusive: 39.8 µM [inhibitor, single point]",
COc1cc(OC)c(OC)cc1/C=N/Nc1ncnc2c1[nH]c1ccccc12,"inconclusive: 0.501 µM [inhibitor, partial curve, poor fit]",
CCc1cc[n+](C2=C([O-])c3ccccc3C(=O)/C2=N\S(=O)(=O)c2cccs2)cc1,"inconclusive: 3.98 µM [inhibitor, full curve, poor fit]",
O=C(Cn1cccc1C(=O)c1ccccc1)NCc1cccc(Cl)c1,,inactive: -10.4%
CCOc1cccc(=O)c2c(C)n(CC(=O)c3ccccc3)c(C)c12,,inactive: -5.04%
CCOc1ccc2[nH]cc(S(=O)(=O)c3ccc(C)cc3)c(=O)c2c1,"inconclusive: 39.8 µM [inhibitor, single point]",
Cc1ccc(C)c(NC(=S)N(CCN(C)C)C(C)c2ccccn2)c1 (stereo not drawn),,inactive: -21.6%
Nc1nccnc1C(=O)OCC(=O)Nc1cccc(S(=O)(=O)N2CCCCC2)c1,"inconclusive: 31.6 µM [inhibitor, partial curve]",
COc1ccc2cc(CCNC(=O)C(C)C)c(=O)[nH]c2c1,"inconclusive: 39.8 µM [inhibitor, single point]",
COc1cc(NC(=O)C2CC(c3cccc(OC)c3OC)=NO2)cc(OC)c1OC (stereo not drawn),"inconclusive: 35.5 µM [inhibitor, single point]",
CCOC(=O)Cc1c(C)nc2c(C#N)c(C)nn2c1C,"inconclusive: 31.6 µM [inhibitor, partial curve]",
